Experimental data from patent publication US20100210602A1, “PhoU (PerF), A P[…] INVOLVED IN [sequence] FORMATION AND TOLERANCE TO MULTIPLE ANTIBIOTICS AND [sequence] AS A DRUG TARGET FOR [sequence] BACTERIA” (priority 2006, published 2010).

Test system: W3110ΔphoU
Assay type: cell-based
Conditions: ampicillin 100 ug/ml

Structure (SMILES): CC1(C)S[C@@H]2[C@H](NC(=O)[C@H](N)c3ccccc3)C(=O)N2[C@H]1C(=O)O [Ampicillin, ampicillin]
- CFU after ampicillin exposure (Fe3+ 250 uM): 1 × 10^8 CFU
- CFU after ampicillin exposure (Pi 2 mM): 1 × 10^5 CFU

Where two headings read alike, the source gives them in different places.
